Values marked as one replicate rest on one cluster of the flow cell; about a third of the high ones do not repeat.

For the data set, the system named is ATP. The data set can be described thus: switch fluorescence ratio, 500 uM ATP over buffer (Cy3 cluster intensity, sum of 5 cycles each) (fold (ratio)); higher = stronger signal-on switching upon ATP binding; sequences stand for … in TCGTCGGCAGCGTCAGATGTGTATAAGAGACAGTTTTTTTTTTTTTTTTTTTTTTTTT…TC. The settings on record: aptamer strand: ATP DNA aptamer (quencher-CACCTGGGGGAGTATTGCGGAGGAAGG + anchor), 100 nM annealed; ATP concentration: 500 uM; one replicate. The method in brief:
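The fluorescence ratio divides summed target-cycle Cy3 intensity by summed buffer-cycle Cy3 intensity for each cluster and is averaged per switch-domain sequence. Cy3-labelled switching-strand clusters on a modified Illumina MiSeq flow-cell were annealed to 100 nM quencher-labelled ATP aptamer, then imaged in selection buffer and again after 15 min with 500 uM ATP at 22 °C. Five such cycles were run, with NaOH stripping and re-annealing between them, and clusters outside 100-1000 RFU were excluded.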
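Also: ATP exposure 15 min at 22 °C before imaging.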

Consider GCTCAGCCAG, for which the switch fluorescence ratio is 1.11. On to CGGAAGTATT, for which the switch fluorescence ratio came to 0.979. For TGTCAAT the value was 1.01; for GCCAGT, 0.984.

For ATGAAGTCGT, the switch fluorescence ratio was found to be 1.03. Regarding GATGTCCCCC, the switch fluorescence ratio was determined as 1.08. Under GCGCCTTGGC stands 0.967; under CGGGTGATTG, 1.01; under GGGGTGCAC, 1.04. For CAAGAAAGC the value was 0.965. For TTCTCTTATA the value was 1.02; for CGAATTGGGG, 0.939; for TCAAGGTTAT, 0.975.

Regarding ACGTGATTCC, the switch fluorescence ratio was determined as 1.16.

Consider TAGGCCTGAA, for which the switch fluorescence ratio came out at 1. For GTCAGGTCGG the value was 1.06; for AGACGGGGT, 0.957; for CCTTGTCGAG, 1.02. For GGCTGTGCGG the value was 0.99; for GGCTTGTGCG, 0.989. Under TGTATGCCAG stands 0.932. For TCCGACTTG, the switch fluorescence ratio amounted to 1.01.

Consider ATCCTTGGGT, for which the switch fluorescence ratio turned out to be 1.05. On to CTTTGTCGGC, for which the switch fluorescence ratio came to 1.01. Under TGTGTATTGC stands 0.995; under TTCGCTATAG, 3.91; under GCCATTACTT, 1.03. For GATTCGTGCG the value was 1; for GTGCCTATTG, 1.03; for AGTCTTGAGG, 0.984. Turning to CTTGCGACTT, the switch fluorescence ratio was found to be 0.984. Regarding CCAGGTATAT, the switch fluorescence ratio was 1.08. Under GGTCGGGAGG stands 0.987; under AGATCCCATG, 0.955. For TTCCGGGCGA the value was 2.96; for ATCCCTGTCA, 1.03; for TCTAATGAAC, 1.01. Under ATCCGCTGGT stands 1.46. In the case of TCTTTTAGC, the switch fluorescence ratio came out at 1.03. Under ATCGGAGGTT stands 0.993; under GGCGGCAGG, 1.03. For CTCCTTGCC the value was 1.02; for CGAGTTGACT, 0.977. For CAGCCCGCTG the value was 0.984. For the sequence CAGGGCACTC, the switch fluorescence ratio was 1.01. In the case of TCAAACATAA, the switch fluorescence ratio is 0.979. For GCCATAAGTA the value was 0.971; for GTGAGGTGTC, 0.978; for GTAGGCTAGC, 1.03. Under CTCTTATCTA stands 0.986; under AAGATTGTCC, 1.

ACCGATGCG: the switch fluorescence ratio was 1.02. Under AGGGACTTCT stands 1.06; under TTCTTGAAGG, 0.968. Under CTATACCTGG stands 0.988. In the case of TAAGCCCATC, the switch fluorescence ratio was determined as 1.04.

In the case of CTGTATAAGC, the switch fluorescence ratio turned out to be 1.48. Under TGTTGGAA stands 0.983.

Turning to GTGACGGCCG, the switch fluorescence ratio came out at 1.07. For GACTACTATG the value was 1.05.

Take GTTAAACGTC: the switch fluorescence ratio stood at 0.888.

With CAAAAGATT, the switch fluorescence ratio came out at 0.997. Under ACCTATCCTT stands 1.1. Under TCATAGATTA stands 0.979; under CTCCGAGGAG, 1.02. For ACTAAAGCGG the value was 1.04; for GGCGCGCTAC, 1.12; for CATTTTCGCG, 1.03. GCAGGACGGT: the switch fluorescence ratio turned out to be 1. For ACGAGAGTGC the value was 0.963.

On to GTGAATTCGT, for which the switch fluorescence ratio amounted to 0.946. For ACTCGTCTTA the value was 0.997; for AGTTGTGTTG, 1.01. For TGGGTTCACC, the switch fluorescence ratio came out at 0.968. For AATATTGCTG the value was 1.04; for AGGACCGAGC, 1.08. Under TTTTAGCCTT stands 1.03; under TTCTTAACA, 1.04. For ACCGTTCACT the value was 1.16; for CGCCATCCAC, 1.53. On to AACTTACCGC, for which the switch fluorescence ratio was 1.34. For TGGTGACTGT the value was 1.02; for TCTGAGAAGG, 1.02; for TGCCTTATGA, 1.05. For ATGGCGTGG the value was 0.984.

GGAGGCCGGG: the switch fluorescence ratio was 1.02. Under TCCATTCATC stands 1.01; under CAAGTACCGG, 1.11; under TACTTTTGGG, 0.988. With GGTGAAACCA, the switch fluorescence ratio worked out at 0.982. For CGAGCAAGCA the value was 3.13. For TTATCTAACT the value was 0.993; for TCGGATCTCA, 1.01; for GTGCCTGGAG, 1.

As for GCGAATAGCC, the switch fluorescence ratio worked out at 1.08. For ATTAACGTCA the value was 1.09; for TTGTCTTTGC, 1.01; for TTGGCTGGTT, 1.06.

TGGTGTCCTC: the switch fluorescence ratio was 1.03. Under AACCTACTAT stands 1.1; under TGCCTTGCGG, 1.01; under CCGCATGTTT, 2.52. Under CCATATGGGC stands 0.981. Under GGACGAGAAA stands 1.07; under TTAAATTTGT, 0.989. In the case of GTCAGCACCC, the switch fluorescence ratio was 1.08. For TTTGCGCAGG the value was 1.08; for ATGATCGTTT, 0.946; for TTAAATCGT, 0.995. Under CGCTGGGG stands 1.03. Turning to AAGAAAGTTG, the switch fluorescence ratio was 1.05.

Turning to TTGGGTTCCA, the switch fluorescence ratio stood at 1.03. For ATCTGCACCC the value was 1.2. Turning to AATTGTGTGG, the switch fluorescence ratio stood at 0.991. For CTAGATTGGT the value was 0.943; for ATCGCCTCCT, 1.06; for TATGCGCAGG, 1.06. For GGGCTCGTTC the value was 0.972; for TGGAAAGCAG, 0.971.

On to TTACGTGCTT, for which the switch fluorescence ratio is 1.19. For the sequence ACGCAGATAA, the switch fluorescence ratio is 1.8.

(Values after the supplement of paper PMC10126150.)
